# Measurements reported in PubChem BioAssay AID1030 (National Center for Advancing Translational Sciences (NCATS), 2008).
# The campaign covered roughly 220,000 compounds. About 16,000 (7.3%) were called active. The shares of active, inactive and inconclusive entries below differ from those in the screen. The call rests on the fitted dose curve; in most records, active means well fitted inhibition curve with a large enough effect (not every such curve was filed as active); inconclusive means small, poorly fitted or top-dose-only effect, or another doubt; inactive means no such curve, though single readings can be large or run the other way. No potency is given beside an inconclusive call; the fits are too rough.
# Target: Aldehyde dehydrogenase 1A1 (Homo sapiens) (UniProt P00352)
# Assay: qHTS Assay for Inhibitors of Aldehyde Dehydrogenase 1 (ALDH1A1);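 on activity, negative = inhibition: plate controls were no enzyme wells and a reference inhibitor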
# Details: Purified ALDH1A1, NADH fluorescence, propionaldehyde substrate; series mostly up to 75.3 µM; activity, negative = inhibition: at the top concentration
# Potency means the concentration at half of the fitted maximal effect; tags describe the fitted curve by direction and shape.
# Sequence of UniProt P00352 (P00352 whole entry, looked up): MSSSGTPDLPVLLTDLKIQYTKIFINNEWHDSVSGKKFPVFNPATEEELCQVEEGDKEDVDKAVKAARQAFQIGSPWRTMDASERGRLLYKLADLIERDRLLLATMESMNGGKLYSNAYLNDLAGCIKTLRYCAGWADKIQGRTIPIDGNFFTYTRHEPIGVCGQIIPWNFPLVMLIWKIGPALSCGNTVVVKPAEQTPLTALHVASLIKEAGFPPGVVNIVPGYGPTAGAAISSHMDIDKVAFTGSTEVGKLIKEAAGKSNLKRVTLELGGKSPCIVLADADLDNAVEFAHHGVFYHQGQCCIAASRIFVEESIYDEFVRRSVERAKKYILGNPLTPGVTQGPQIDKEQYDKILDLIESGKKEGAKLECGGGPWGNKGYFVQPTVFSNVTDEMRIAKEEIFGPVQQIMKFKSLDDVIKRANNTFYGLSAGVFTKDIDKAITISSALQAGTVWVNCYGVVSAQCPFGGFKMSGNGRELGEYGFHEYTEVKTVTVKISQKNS
Compound,"activity, negative = inhibition",Potency
Cc1sc2ncnc(N/N=C/c3ccccc3O)c2c1C,inactive: -3.39%,
CC(OC(=O)Cn1c(C(F)(F)F)nc2ccccc21)C(N)=O (configuration not stated),inactive: 11.4%,
CC(C)Cn1c(N)c(C(=O)NCc2cccs2)c2nc3ccccc3nc21,,"inconclusive [inhibitor, partial curve]"
Cc1[nH]c2ccccc2c1C(=O)CN1CCN(C2CCCCC2)CC1,,active: 12.6 µM
CC(C)CC1=NN(C(=O)c2ccco2)C(O)(C(F)(F)F)C1 (configuration not stated),inactive: -10.4%,
O=C(NCc1cccs1)C(=O)NCC(c1ccco1)N1CCN(c2ccccc2F)CC1 (configuration not stated),,"inconclusive [inhibitor, partial curve]"
Fc1cccc(Cn2cc(C(=S)N3CCCCC3)c3ccccc32)c1,,"inconclusive [inhibitor, single point]"
COc1ccccc1Oc1coc2c(CN3CCN(C)CC3)c(O)ccc2c1=O,,"inconclusive [inhibitor, partial curve]"
c1ccc(Cn2nnnc2CN2CCN(Cc3ccc4c(c3)OCO4)CC2)cc1,,active: 20 µM
COc1ccc(C2=CSC3=NNC4(CCCCC4)NN23)cc1,,"inconclusive [inhibitor, single point]"
CC(C)N(Cc1cnn(C)c1)Cc1nc(COc2ccccc2)no1,,"inconclusive [inhibitor, partial curve]"
Cc1ccc(C(=O)OCC(=O)Nc2ccc(N(C)C)cc2)cc1NC(=O)c1ccco1,,active: 11.9 µM
Cc1sc2nc(C3CC3)nc(N3CCN(S(=O)(=O)c4ccc(F)cc4)CC3)c2c1C,inactive: -6.99%,
O=C(CNC(=O)c1ccccc1F)OCc1nc2ccccc2s1,inactive: 1.59%,
COc1ccc(C(=O)OCCNC(=O)c2c(Cl)nc3ccccn23)cc1,inactive: -0.18%,
COc1ccc(N(C(C)C(=O)N/N=C/c2cc(Br)c(C)o2)S(C)(=O)=O)cc1 (configuration not stated),inactive: -1.51%,
CC(=O)[C@@H]1[C@@H](C)N(Cc2ccccc2)C(=O)N[C@H]1c1cccc(C(F)(F)F)c1,,"inconclusive [inhibitor, single point]"
N=c1sccn1CC(=O)Nc1ccccc1-c1ccccc1,,"inconclusive [inhibitor, single point]"
CCOc1ccc(C=Nc2cccc3ncccc23)cc1,,active: 17.8 µM
CC(C)c1ccc(NC(=O)COC(=O)[C@H](CCC(N)=O)NC(=O)c2ccc(F)cc2)cc1,,"inconclusive [inhibitor, single point]"
O=C(CC1CC2CCC1C2)Nc1nc(-c2ccccn2)cs1 (configuration not stated),,"inconclusive [inhibitor, single point]"
Cc1ccc(OCCNC(=O)c2ccccc2N)cc1,,"inconclusive [inhibitor, partial curve]"
CC(C)CC(NC(=O)C1CCC(C)CC1)C(=O)NCc1cccnc1 (configuration not stated),,"inconclusive [inhibitor, partial curve, poor fit]"
Cc1cccnc1NC(=O)C1CCN(S(=O)(=O)c2c(C)noc2/C=C/c2ccco2)CC1,,"inconclusive [inhibitor, single point]"

Compound,"activity, negative = inhibition",Potency
CCn1c(O)c(N=NC(=O)CNc2cccc(C)c2)c2ccccc21,,active: 28.2 µM
COc1cc2[nH]c(=O)n(CCC(=O)N3CCc4ccccc4C3)c(=O)c2cc1OC,,"inconclusive [inhibitor, single point]"
O=Cc1cnc(N2CCCCC2)s1,,active: 3.55 µM
O=c1oc2c(CN3CCOCC3)c(O)c(Cl)cc2c2c1CCC2,,"inconclusive [inhibitor, full curve]"
CN(C)c1ccc(NC(=O)N2CCOCC2)cc1,inactive: 3.2%,
COc1ccc(/C=C(\C#N)C(=O)OC2CCOC2=O)cc1 (configuration not stated),,active: 17.8 µM
CCOc1cc2[nH]c(=O)n(CCCCCC(=O)NCc3ccco3)c(=O)c2cc1OCC,,"inconclusive [inhibitor, single point]"
O=C1C(=O)N(O)C2CCCCC2N1O (configuration not stated),inactive: -10.3%,
CCOc1ccc(N2CCCCn3c2nc2c3c(=O)[nH]c(=O)n2C)cc1,inactive: 2.53%,
O=C(CSc1nc2ccccc2[nH]1)N1CCN(C(=O)c2ccco2)CC1,,"inconclusive [inhibitor, single point]"
COc1ccc(CN2C(=O)CN=C2Nc2ccc(C)cc2C)cc1,,"inconclusive [inhibitor, single point]"
COc1ccc(N2CCN(C(=O)CCN3C(=S)NC(C)(C)CC3C)CC2)cc1 (configuration not stated),inactive: -5.08%,
O=C(Oc1ccc(C(=S)N2CCOCC2)cc1Br)c1cc(Cl)ccc1Cl,inactive: 2.65%,
O=C(CCN1C(=O)C2C3C=CC(C3)C2C1=O)Nc1ccccc1F (configuration not stated),,"inconclusive [inhibitor, single point]"
COCCN(CCOC)c1nc(C)nc2c1nc(-c1ccccc1)n2CCCN(C)C,,"inconclusive [inhibitor, partial curve]"
CCOC(=O)C1=C(N)OC2=C(C(=O)CCC2)C1c1ccc(C)s1 (configuration not stated),,"inconclusive [inhibitor, single point]"
C/C(=C\C(=O)c1ccc(F)cc1)Nc1ccc(N2CCOCC2)cc1,,"inconclusive [inhibitor, single point]"
Cc1oc(-c2ccccc2F)nc1CN1CCC(C(=O)NCc2cccs2)CC1,,"inconclusive [inhibitor, partial curve]"
COc1ccc(-c2cn(-c3ccc(C)cc3)c(=O)n2CC(=O)Nc2ccc(OC)c(OC)c2)cc1,,"inconclusive [inhibitor, single point]"
Cc1ccc(NC(=O)/C=C/c2ccc([N+](=O)[O-])s2)c(C)c1,inactive: -7.56%,
COc1ccc(OC)c(NC(=O)CNC(=O)Cn2c(C)cc3ccccc3c2=O)c1,inactive: -7.41%,
CN(N=Nc1cccc([N+](=O)[O-])c1)c1cccc([N+](=O)[O-])c1,,"inconclusive [inhibitor, full curve]"
CCOc1ccc(N2C(=O)C3ON(c4ccccc4)C(c4ccco4)C3C2=O)cc1 (configuration not stated),,"inconclusive [inhibitor, single point]"
